Test results from PubChem BioAssay AID588342 (National Center for Advancing Translational Sciences (NCATS), 2011).
Values joined by “and” are separate entries in the source; they are usually repeats but may differ in a detail not shown here. Equal entries are not always repeated. The campaign covered roughly 360,000 compounds. About 25,000 (6.9%) were called active. The inconclusive results got no clear call from the source; some entries with a clear call stand among them for comparison. Calls come from the whole dose curve; as a rule, active = well fitted inhibition curve with a large enough effect; inconclusive = small, poorly fitted or top-dose-only effect; inactive = flat fitted curve, though single readings scatter. Where the call is inconclusive, the potency comes from a doubtful curve fit.

Target: Luciferin 4-monooxygenase (Photinus pyralis) (UniProt P08659)
Assay: qHTS profiling assay for firefly luciferase inhibitor/activator using purifed enzyme and Km concentrations of substrates (counterscreen for miR-21 project); note: nearly all actives have a fitted effect of over 55% in size;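 for activity change, negative = inhibition: plate controls were vehicle for no effect and reference inhibitor for full effect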
Conditions: purified FLuc, luminescence inhibition; series mostly up to 57.5 µM; activity change, negative = inhibition: at the top concentration
Outline: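 Purified P. pyralis luciferase, 10 nM final, with Km-level 10 uM D-luciferin and 10 uM ATP in 50 mM Tris acetate pH 7.5, 10 mM Mg acetate, 0.01% Tween-20, 0.05% BSA; 6-point qHTS titration about 60 µM downward; luminescence read.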
Potency is the fitted concentration of half-maximal effect; tags give direction and shape of the fitted curve.

UniProt P08659, sequence (P08659 whole entry, looked up): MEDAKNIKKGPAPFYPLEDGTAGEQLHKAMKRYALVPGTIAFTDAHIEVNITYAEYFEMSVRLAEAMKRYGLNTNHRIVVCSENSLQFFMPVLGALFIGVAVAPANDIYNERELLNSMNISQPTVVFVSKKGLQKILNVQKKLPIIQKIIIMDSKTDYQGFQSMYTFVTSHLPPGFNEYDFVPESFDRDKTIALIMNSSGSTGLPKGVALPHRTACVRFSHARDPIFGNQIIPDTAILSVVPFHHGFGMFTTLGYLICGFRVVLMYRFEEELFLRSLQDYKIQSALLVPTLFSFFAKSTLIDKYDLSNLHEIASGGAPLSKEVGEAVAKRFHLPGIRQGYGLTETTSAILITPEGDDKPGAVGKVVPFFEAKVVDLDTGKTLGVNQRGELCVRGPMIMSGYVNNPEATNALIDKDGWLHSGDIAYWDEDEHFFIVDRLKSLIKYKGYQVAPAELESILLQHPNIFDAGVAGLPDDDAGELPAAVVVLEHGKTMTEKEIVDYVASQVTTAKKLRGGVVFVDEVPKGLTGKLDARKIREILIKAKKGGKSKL

Compound | Potency | activity change, negative = inhibition
CCc1ccc(C(=O)COC(=O)c2ccccc2OC)cc1 | active: 0.478 µM | 
CCCC(=O)Nc1ccc(C(=O)Nc2cccc(OC)c2)cc1 | inconclusive: 21.3 µM [inhibitor, partial curve] | 
Cc1ccc(-c2cc(C(=O)Nc3ccc(S(=O)(=O)Nc4onc(C)c4C)cc3)[nH]n2)c(O)c1 | inconclusive: 37.9 µM [inhibitor, single point] | 
COc1cccc(NC(=O)c2sc3nc(C)c(C(=O)Nc4ccc(C)cc4C)c(-c4ccc(Br)cc4)c3c2N)c1 |  | inactive: -4.88%
COC(=O)N/N=C/c1ccc(-c2cccc(Cl)c2)o1 | inconclusive: 21.3 µM [inhibitor, partial curve] | 
Cc1ccc(NC(=O)C(Nc2cccc(C)c2)c2ccccc2)cc1 (stereo unspecified) | inconclusive: 26.9 µM [inhibitor, partial curve, poor fit] | 
Cc1ccc2nc(SC(Cc3cc(Cl)ccc3Cl)C(=O)O)[nH]c2c1 (stereo unspecified) | inconclusive: 16.9 µM [inhibitor, partial curve] | 
COc1ccc(CNC(=O)c2cc3sccc3n2C)cc1 |  | inactive: -16.4%
NS(=O)(=O)c1ccc(NC(=O)Nc2ccc3c(c2)OCO3)cc1 | active: 15.1 µM | 
Cc1nc(C(=O)NNC(=O)c2ccc(C(F)(F)F)cc2)cs1 | inconclusive: 37.9 µM [inhibitor, partial curve, poor fit] | 
CCCCC(=O)N1CCN(c2nc3ccc(Br)cc3s2)CC1 | inconclusive: 23.9 µM [inhibitor, partial curve] | 
O=C(Nc1ccc(N2CCOCC2)c(Cl)c1)c1ccc(Cl)cc1 | active: 16.9 µM | 
COC(=O)c1ccc(COc2ccc(C)c(C)c2)o1 | inconclusive: 26.9 µM [inhibitor, single point] | 
COc1ccc(Cl)cc1C(=O)O/N=C(\N)c1ccccn1 | inconclusive: 30.1 µM [inhibitor, partial curve] | 
O=c1[nH]c(/C=C\c2cccc(O)c2)nc(O)c1[N+](=O)[O-] | inconclusive: 33.8 µM [inhibitor, partial curve, poor fit] | 
Clc1ccccc1/C=C/c1nc(-c2ccccn2)no1 | active: 0.107 µM | 
COC(=O)CSc1nnc(CNc2nc(-c3ccccc3)cs2)n1C | inconclusive: 8.49 µM [inhibitor, single point] | 
Cc1ccc(CNC(=O)COC(=O)CCCOc2ccc(Cl)cc2Cl)cc1 | inconclusive: 26.9 µM [inhibitor, single point] | 
O=C(O)C(c1ccccc1)C(c1ccccc1)c1ccccc1 (stereo unspecified) | inconclusive: 15.1 µM [inhibitor, partial curve, poor fit] | 
Cc1ccc2nc(-c3ccncc3)[nH]c2c1 | active: 8.49 µM | 
COc1ccc(-c2nc3cc(NC(=O)CSc4ccc(C)cc4)ccc3o2)cc1 | inconclusive: 21.3 µM [inhibitor, single point] | 
O=C(CC(=O)c1ccccc1)Nc1cc(C(F)(F)F)ccc1Cl | inconclusive: 37.9 µM [inhibitor, single point] | 
COc1ccc(C2=NN(C(=O)CSc3nc4ncc(Cl)cc4[nH]3)C(c3ccco3)C2)cc1 (stereo unspecified) | inconclusive: 37.9 µM [inhibitor, partial curve, poor fit] | 

Compound | Potency | activity change, negative = inhibition
COc1ccc(OC)c(NC(=O)C2CCCCC2)c1 |  | inactive: -7.64%
CCOc1ccc(N=Cc2c(O)n(-c3cccc(C)n3)c(=O)c3ccccc23)cc1 | inconclusive: 23.9 µM [inhibitor, partial curve] | 
C=CCOC(=O)C1=C[C@@H](c2ccc3c(c2)OCO3)C[C@@H](OCc2ccc(CO)cc2)O1 | inconclusive: 37.9 µM [inhibitor, single point] | 
Cc1ccc(Cl)cc1Nc1nn2c(=O)c3ccc(C(=O)NCc4ccc(F)cc4)cc3nc2s1 |  | inactive: 0.0353%
CC1CCc2cc(F)ccc2N1C(=O)C12CCC(C)(C(=O)O1)C2(C)C (stereo unspecified) |  | inactive: -2.54%
Cc1cccc2c1cnn2C(=O)Nc1ccccc1Cl | active: 1.69 µM | 
CCCOc1ccc(-c2nc(SCC(=O)c3ccc(Cl)cc3)n[nH]2)cc1 |  | inactive: -1.54%
C=CCc1ccc(OCc2ccc(C(=O)OC)o2)c(OC)c1 | active: 7.57 µM | 
CCN(CC)c1ccc(/C=N/NC(=O)c2cc3ccccc3[nH]2)cc1 | active: 12 µM | 
Cc1cccc(NC(=O)NCc2ccc3[nH]c(C)cc3c2)c1 | active: 19 µM | 
CC(=O)Nc1cccc(C(=O)Nc2nc(C)cs2)c1 | inconclusive: 30.1 µM [inhibitor, partial curve, poor fit] | 
O=C(O)Cn1c(O)c(C=Nc2ccccc2)sc1=S | inconclusive: 37.9 µM [inhibitor, partial curve, poor fit] and inconclusive: 26.9 µM [inhibitor, single point] | 
CN1CCN(c2ncc3c(n2)CCN(Cc2ccc(Br)s2)C3)CC1 |  | inactive: 0.789%
CC1CCC2C(=O)N(c3ccc(Cc4ccncc4)cc3)C(=O)C2C1 (stereo unspecified) | inconclusive: 37.9 µM [inhibitor, single point] | 
Brc1ccsc1-c1csc(-c2ccncc2)n1 | inconclusive: 21.3 µM [inhibitor, partial curve, poor fit] | 
CC1CCCN(c2nc3ccccc3nc2C(C#N)S(=O)(=O)c2cccs2)C1 (stereo unspecified) |  | inactive: -1.59%
CCc1cccc(NC(=O)C2CC2c2ccccc2)c1 (stereo unspecified) | inconclusive: 26.9 µM [inhibitor, single point] | 
CCCCC(=O)Nc1nnc(CCc2ccccc2)s1 |  | inactive: 0.415%
CCCCc1nnc(NC(=O)c2oc3ccccc3c2C)s1 | inconclusive: 19 µM [inhibitor, partial curve] | 
CCc1ccc(NC(=O)c2sc3nc4n(c(=O)c3c2C)CCC4)cc1 | active: 15.1 µM | 
O=C(CSc1ccc(-c2ccco2)nn1)NC1CCCCC1 | inconclusive: 37.9 µM [inhibitor, partial curve, poor fit] | 
CCN(C(=O)CN1C(=O)S/C(=C\c2ccc(F)cc2)C1=O)C1CCS(=O)(=O)C1 (stereo unspecified) | inconclusive: 37.9 µM [inhibitor, partial curve, poor fit] | 
COc1ccccc1/C=C/C=N/NC(=O)c1cc(-c2ccco2)[nH]n1 | active: 16.9 µM | 
